# In PMC12136788:
# Some of the results follow.
# T1: UNK ZnF1-3 (human, UniProt Q9C0B0 31-174)
# T1 sequence: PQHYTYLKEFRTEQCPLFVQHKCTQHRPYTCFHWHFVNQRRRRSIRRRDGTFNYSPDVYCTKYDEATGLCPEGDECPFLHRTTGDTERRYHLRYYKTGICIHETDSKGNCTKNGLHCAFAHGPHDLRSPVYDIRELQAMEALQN
# B1: chr1:169100865:169100866:+_ENSG00000143153_ENST00000367816|hu_hu|motif|central (ssRNA)
# RNA: GGGAGUUCUACAGUCCGACGAUCGUGUAAAGCAUAUAGAUUAAGUGUAGGUCCCAUACGUAUGACAGUUUGUUCAAGACGGGUAGGUUUUUGUUUUUGUAUCUUUUUUUAACUUAUUAAAUGGCUAGUGGGAAAGAUUUGUGCCAACAGAGGAUUGAGCAUCA
# B2: chr19:30113593:30113594:+_ENSMUSG00000024817_ENSMUST00000025739|mus_hu|FALSE|FALSE (ssRNA)
# RNA: GGGAGUUCUACAGUCCGACGAUCGGGUUUAGCCUCAAUCUGUGUAGAUGUGCCAGGAAGAUGAUCAGGGUCUGGGCGAACUAGCAGCUGAAUUAUAUCAUUCAGUCCAACAUCAUAAUCAAAUAAGGUAUAUCCAUUUUCCAACAACAGAGGAUUGAGCAUCA
# B3: 171514793_171519311_636_CDS_ENSG00000117523_ENST00000495585|human|control|control (ssRNA)
# RNA: GGGAGUUCUACAGUCCGACGAUCCCACUUCAGUAAAACCAUCAUCAUUCAAAUUUGACUGGGGAUCUUCAAUUACUGUUACUUCAGGAUGAUCAUCAAUUAUAACAACACUUGCAUAAUUGUUGAGAUCAAACUGUGAUAGAGCAACAGAGGAUUGAGCAUCA
# B4: 96199972_96200459_2083_3pUTR_ENSMUSG00000033237_ENSMUST00000096250|mouse|control|control (ssRNA)
# RNA: GGGAGUUCUACAGUCCGACGAUCAUGCCUUGUACCGGAAAAGACAUUUGUGUUGCAGUCAAAUUUGAAGAUUGAUUGGUGACAGGAGUCCUCUGAAAAUGAUUCCCUGCAGCCUGUGGUCCAUGAGGGAUUCCUGCAGGUGAACAACAGAGGAUUGAGCAUCA
# B5: chr8:74858975:74858976:-_ENSG00000154582_ENST00000284811|hu_mus|FALSE|FALSE (ssRNA)
# RNA: GGGAGUUCUACAGUCCGACGAUCGACCUUGUAGGUAAAAUACAUGCACACUUUUGAUAGCACAUGUGAGGGGAUCUCUCUAAAAUUGACCUCGUUGGUUUCAUUCUCAGCAAACUGACCUGGACCACUCAACAUAGCCUUUAUCAACAGAGGAUUGAGCAUCA
# B6: chr12:39763582:39763583:-_ENSG00000139116_ENST00000544797|hu_mus|hu_hu_hu_mus_False|8_28 (ssRNA)
# RNA: GGGAGUUCUACAGUCCGACGAUCCUCUAGGAACUGGGCAUUCACUUUGAAUUCAGGAGGGGGCAGCCCGUUUUUAAUCGCUGAGGUCUUUUUCUCAUCAAUACUCUUAAAAAGGUGUCUAACAGCACGAGAAAUAAUGCCCUGCAACAGAGGAUUGAGCAUCA
# B7: chr1:66480114:66480115:+_ENSMUSG00000015222_ENSMUST00000024639|mus_hu|motif|central (ssRNA)
# RNA: GGGAGUUCUACAGUCCGACGAUCUGGCCUGUGGCGGAUGUUCUUCAGAGAGCCACAUUUGGAUGUCACAUGGCUUAGGUCGGUUUUCUUGGUAACAAUUUGUACCUGCCCCCCUUUAGGCUGGUAUUUGAUGUUGUCUGUUGACAACAGAGGAUUGAGCAUCA
# B8: chr2:198351390:198351391:-_ENSG00000144381_ENST00000345042|hu_hu|hu_hu_hu_mus_False|28_78 (ssRNA)
# RNA: GGGAGUUCUACAGUCCGACGAUCUCAUUCCCACCCUCCACAGAAAGGCUGCUUCUGUUCUCAUCUGUGGUGACACAGCGCUACAGUCCUGAUGCUCACAGAACAGUAGUAAAAAUGCAGUGAUUUAAGUUGAAAGCAGGACACCAACAGAGGAUUGAGCAUCA
# B9: chr4:141302222:141302223:+_ENSG00000153130_ENST00000394201|hu_mus|FALSE|FALSE (ssRNA)
# RNA: GGGAGUUCUACAGUCCGACGAUCCCUUUUGCUUUUUGUAUCAGUUGUUUGAAAAACACUAGAAGCAGACAUGAGGUUUUCUAUAUAUUGUCCGAGAACUUGAUUUUCCGACUUUAGCUUCAGAUUUUCUUCCUUAACUGCAUCCAACAGAGGAUUGAGCAUCA
# B10: chr1:220312391:220312392:+_ENSG00000067704_ENST00000302637|hu_hu|motif|central (ssRNA)
# RNA: GGGAGUUCUACAGUCCGACGAUCAUCUGUUUCUGGGUUGAAAUCAGCCACAUUUCCCAAAAGAAAGCGAAGUGUAUUCCGGAGCUUGCUAAUAUCAUCUCUGGCAGCAUUGAGCACGGAUGGGCCAAUUGCAACUUCGGUGAACAACAGAGGAUUGAGCAUCA
# B11: chr14:59836542:59836543:+_ENSMUSG00000035469_ENSMUST00000043227|mus_hu|FALSE|FALSE (ssRNA)
# RNA: GGGAGUUCUACAGUCCGACGAUCCCAAGCAAACACCUCUCCAUCAGCUGCCAGAGCCAUUGAAUGAUGUGAGCCACAAGCUACUUCCACCACUUGCUUGAUCAAGAGAUUGGUACAGACCUGGACGGGAGCAAUGCCUUGGUUCAACAGAGGAUUGAGCAUCA
# B12: chr1:39494447:39494448:+_ENSG00000168653_ENST00000372967|hu_mus|hu_hu_hu_mus_False|78_88 (ssRNA)
# RNA: GGGAGUUCUACAGUCCGACGAUCGCACCGAGCGGCGUUCUUAUAGGGCUGUUCACCACUCUGGAUUAUAAAGUGCCGGUCCAGGCUGAUGCCCAGCUUUUUCUGUAUGUCAAGGAAAGGCAUGGCUCUGCAGUGCCCUUGUCACAACAGAGGAUUGAGCAUCA
# B13: chr15:74751088:74751089:-_ENSG00000138629_ENST00000361351|perfect_dup|motif|central (ssRNA)
# RNA: GGGAGUUCUACAGUCCGACGAUCCGGGUCUGGAACAGAUUCCUGGAGCUUGCCAGCAAUAAGCUGCUUCAGAAAUGAAAUGCGGUAGCCCCCUAGGGAAUAUUCUCCCAGUUCUGUCUCUGGCAACUGAAGAAUAGAUUUUGGCAACAGAGGAUUGAGCAUCA
# B14: chr4:99339852:99339853:+_ENSG00000138698_ENST00000453712|hu_mus|motif|central (ssRNA)
# RNA: GGGAGUUCUACAGUCCGACGAUCGGCGUGCUGCACCGUCACGUUCCCGUCUUCUACGUGUCUGUCCAGCAAAUCCAUGAGUUUUUCGGCAAUCCCAUUGUCUACCAUAUGAAUACAAUUUCCAUCGUUCCUGGCAAAAUUUGCCAACAGAGGAUUGAGCAUCA
# Biological target: T1, UNK ZnF1-3
# Assay: nsRBNS (natural sequence RNA bind-n-seq); RBNS binding buffer (assumed for nsRBNS): 25 mM Tris pH 7.5, 150 mM KCl, 3 mM MgCl2, 0.01% Triton X-100, 500 ug/ml BSA, 20 U/ml SUPERase-In, 4 C; UNK is unkempt and MSI1 is Musashi-1; names of the RNAs are library labels; protein concentration not given here; high values mean tight binding
row,Binder,binding signal [enrichment R]
1,B1,1.88
2,B2,1.17
3,B3,1.09
4,B4,1.19
5,B5,0.787
6,B6,1.49
7,B7,0.496
8,B8,1.34
9,B9,0.481
10,B10,1.28
11,B11,1.44
12,B12,0.958
13,B13,1.16
14,B14,0.6
